Calls of active or inactive are those of the source. The calls are words filed in the database; no cut-off is given here.
How the values were obtained:
[1] = Toxicity in C57BL/6 mouse assessed as induction of Straub tail at 10 mg/kg, sc; assay type: organism-based; conditions: in vivo
[2] = Toxicity in C57BL/6 mouse assessed as induction of sedation at 10 mg/kg, sc; assay type: organism-based; conditions: in vivo
[3] = tested on: Mus musculus; assay: Antinociceptive activity in C57BL/6 mouse assessed as reduction in writhing at 1 mg/kg, sc dosed 30 mins before acetic acid injection and measured after 20 mins by acetic acid stretch assay; assay type: functional, organism-based
[4] = molecular target: Mu-type opioid receptor (Homo sapiens, UniProt P35372); assay: biochemical; assay type: cell-based, CHO
UniProt P35372, sequence (P35372 whole entry): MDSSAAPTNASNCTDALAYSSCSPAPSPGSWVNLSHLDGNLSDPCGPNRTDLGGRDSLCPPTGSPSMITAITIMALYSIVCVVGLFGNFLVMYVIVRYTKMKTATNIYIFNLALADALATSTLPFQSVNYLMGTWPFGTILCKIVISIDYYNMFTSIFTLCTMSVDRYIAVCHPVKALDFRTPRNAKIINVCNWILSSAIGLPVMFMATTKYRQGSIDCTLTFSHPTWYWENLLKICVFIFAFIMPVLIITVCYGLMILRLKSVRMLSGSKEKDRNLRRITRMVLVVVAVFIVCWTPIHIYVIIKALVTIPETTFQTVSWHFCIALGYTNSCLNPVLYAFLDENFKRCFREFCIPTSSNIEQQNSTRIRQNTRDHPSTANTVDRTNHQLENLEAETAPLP

[5] = molecular target: Kappa-type opioid receptor (Homo sapiens, UniProt P41145); assay: biochemical; assay type: cell-based, CHO
UniProt P41145, sequence (P41145 whole entry): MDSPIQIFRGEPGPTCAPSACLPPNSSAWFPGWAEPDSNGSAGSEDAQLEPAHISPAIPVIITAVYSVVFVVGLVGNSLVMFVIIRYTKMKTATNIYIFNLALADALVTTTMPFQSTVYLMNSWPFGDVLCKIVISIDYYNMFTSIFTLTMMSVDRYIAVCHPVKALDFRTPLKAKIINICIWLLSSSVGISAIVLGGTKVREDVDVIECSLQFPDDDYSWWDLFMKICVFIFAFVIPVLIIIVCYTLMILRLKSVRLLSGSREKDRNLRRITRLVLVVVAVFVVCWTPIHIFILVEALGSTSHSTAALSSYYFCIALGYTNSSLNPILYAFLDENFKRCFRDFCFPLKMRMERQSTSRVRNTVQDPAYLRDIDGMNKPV

[6] = Toxicity in C57BL/6 mouse assessed as induction of behavioral changes at 10 mg/kg, sc; assay type: organism-based; conditions: in vivo
[7] = Toxicity in C57BL/6 mouse assessed as effect on locomotion tail at 10 mg/kg, sc; assay type: organism-based; conditions: in vivo
[8] = Toxicity in C57BL/6 mouse assessed as induction of convulsions at 10 mg/kg, sc; assay type: organism-based; conditions: in vivo
[9] = tested on: Mus musculus; assay: Antinociceptive activity in C57BL/6 mouse assessed as reduction in writhing at 10 mg/kg, sc dosed 30 mins before acetic acid injection and measured after 20 mins by acetic acid stretch assay; assay type: functional, organism-based
[10] = molecular target: Delta-type opioid receptor (Homo sapiens, UniProt P41143); assay: biochemical
UniProt P41143, sequence (P41143 whole entry): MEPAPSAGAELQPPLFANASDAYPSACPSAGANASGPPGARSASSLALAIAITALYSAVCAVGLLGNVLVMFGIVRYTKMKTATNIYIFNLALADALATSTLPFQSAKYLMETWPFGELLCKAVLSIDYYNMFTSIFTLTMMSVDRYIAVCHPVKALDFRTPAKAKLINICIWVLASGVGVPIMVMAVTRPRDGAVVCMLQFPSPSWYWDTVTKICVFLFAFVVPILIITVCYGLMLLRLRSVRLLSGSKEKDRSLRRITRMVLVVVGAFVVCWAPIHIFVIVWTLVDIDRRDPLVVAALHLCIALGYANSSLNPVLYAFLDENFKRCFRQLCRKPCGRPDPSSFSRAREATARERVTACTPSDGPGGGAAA

[11] = Ratio of half life of compound to verapamil in mouse liver microsomes at 1 uM in presence of NADPH by LC-MS/MS analysis; assay type: ADME, Microsome

| Compound | Activity [1] | Activity [2] | Activity [3] | Ki [4] [µM] | Ki [5] [µM] | Activity [6] | Activity [7] | Activity [8] | Activity [9] | Ki [10] [µM] | Ratio [11] |
| --- | --- | --- | --- | --- | --- | --- | --- | --- | --- | --- | --- |
| CCOc1ccc(CN2Cc3ccccc3C2)cc1CNC(=O)[C@@H](N)Cc1c(C)cc(O)cc1C.O=C(O)C(F)(F)F | Non-Toxic | Non-Toxic | Active | 0.0008 | 0.243 | Non-Toxic | Non-Toxic | Non-Toxic |  |  |  |
| CCOc1ccc(CNCc2ccccc2)cc1CNC(=O)[C@@H](N)Cc1c(C)cc(O)cc1C.O=C(O)C(F)(F)F | Non-Toxic | Non-Toxic |  |  | 0.0232 | Non-Toxic | Non-Toxic | Non-Toxic | Active |  |  |
| CCOc1ccc(CN2CCOCC2)cc1CNC(=O)[C@@H](N)Cc1c(C)cc(O)cc1C.O=C(O)C(F)(F)F |  |  |  | 0.038 | > 1.87 |  |  |  |  | 0.076 |  |
| CCOc1ccc(CN2CCCC2)cc1CNC(=O)[C@@H](N)Cc1c(C)cc(O)cc1C.O=C(O)C(F)(F)F | Non-Toxic | Non-Toxic |  | 0.015 | 0.43 | Non-Toxic | Non-Toxic | Non-Toxic |  | 0.0444 | 6.6 |
| CCOc1ccc(CN(C)Cc2ccccc2)cc1CNC(=O)[C@@H](N)Cc1c(C)cc(O)cc1C.O=C(O)C(F)(F)F | Non-Toxic | Non-Toxic |  | 0.00048 | 0.0124 | Non-Toxic | Non-Toxic | Non-Toxic |  | 0.00193 |  |
| CCOc1ccc(CN2CC3CC3C2)cc1CNC(=O)[C@@H](N)Cc1c(C)cc(O)cc1C (stereo partly specified) |  |  |  | 0.0196 | 0.247 |  |  |  |  | 0.05 |  |
| CCOc1ccc(CN2CCCCC2)cc1CNC(=O)[C@@H](N)Cc1c(C)cc(O)cc1C.O=C(O)C(F)(F)F | Non-Toxic | Non-Toxic |  | 0.005 | 0.101 | Non-Toxic | Non-Toxic | Non-Toxic |  | 0.0157 | 3.3 |
| CCOc1ccc(C(=O)N2CCCC2)cc1CNC(=O)[C@@H](N)Cc1c(C)cc(O)cc1C.O=C(O)C(F)(F)F |  |  |  | 0.033 | > 0.716 |  |  |  |  | 0.074 |  |
| CCOc1ccc(C(=O)N2Cc3ccccc3C2)cc1CNC(=O)[C@@H](N)Cc1c(C)cc(O)cc1C.O=C(O)C(F)(F)F |  |  |  | 0.00029 | 0.261 |  |  |  |  | 0.0059 |  |
| CCOc1ccc(CN2CCc3ccccc3C2)cc1CNC(=O)[C@@H](N)Cc1c(C)cc(O)cc1C.O=C(O)C(F)(F)F | Non-Toxic | Non-Toxic |  | 0.00023 | 0.0442 | Non-Toxic | Non-Toxic | Non-Toxic |  | 0.0024 |  |

From ChEMBL document CHEMBL4376894 (J Med Chem, 2020)
